Consider 26 compounds from the supplement of paper PMC4604168 (melanoma cell lines).

Test systems include A101D; A2058; A375.
What all share (test): cell count relative to DMSO control; melanoma cells; higher = more viable cells
What all share (details): library dose: standard library concentration; 72 h

The list shows a part of the results. Single values are uncertain, as repeats are few or missing.
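Further: cells treated in 1,536-well plates, then fixed and DAPI-stained, with nuclei counted from automated high-throughput microscope images.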

`COc1ccc(C2=N[C@@H](c3ccc(Cl)cc3)[C@@H](c3ccc(Cl)cc3)N2C(=O)N2CCNC(=O)C2)c(OC(C)C)c1` [Nutlin-3] + Cn1c(=O)n(-c2ccc(C(C)(C)C#N)cc2)c2c3cc(-c4cnc5ccccc5c4)ccc3ncc21 [NVP-BEZ235] (first compound 0.5 µM, partner dose 0.02 µM): the results for the cell count in the assay on A101D, in the assay on A2058 and with A375 were 62.6%, 62.5% and 78%, respectively.
For `Cc1cn(-c2cc(NC(=O)c3ccc(C)c(Nc4nccc(-c5cccnc5)n4)c3)cc(C(F)(F)F)c2)cn1` [nilotinib] + CC(C)C[C@H](NC(=O)[C@H](Cc1ccccc1)NC(=O)c1cnccn1)B(O)O [Bortezomib] (first compound 1 µM, partner dose 0.005 µM), in that order: 14.8%, 6.57% and 85.3%.
For `Cc1cc(Nc2cc(N3CCN(C)CC3)nc(/C=C/c3ccccc3)n2)n[nH]1` + NCC(=O)Nc1ccc(-n2nc(C(F)(F)F)cc2-c2ccc3c(ccc4ccccc43)c2)cc1 [OSU03012] (first compound 0.2 µM, partner dose 5 µM), in that order: 54.4%, 105% and 46.5%.
For `COc1ccc(C2=N[C@@H](c3ccc(Cl)cc3)[C@@H](c3ccc(Cl)cc3)N2C(=O)N2CCNC(=O)C2)c(OC(C)C)c1` [Nutlin-3] + C=CCNC1=C2C[C@@H](C)C[C@H](OC)[C@H](O)[C@@H](C)/C=C(\C)[C@H](OC(N)=O)[C@@H](OC)/C=C\C=C(/C)C(=O)NC(=CC1=O)C2=O [Tanespimycin] (first compound 0.5 µM, partner dose 0.01 µM), the cell count came out at 64.6% with A101D, 84.8% in the assay with A2058 and 101% in the assay on A375.
As for `Cc1cc(Nc2cc(N3CCN(C)CC3)nc(/C=C/c3ccccc3)n2)n[nH]1` + Cc1nc(Nc2ncc(C(=O)Nc3c(C)cccc3Cl)s2)cc(N2CCN(CCO)CC2)n1 [dasatanib] (first compound 0.2 µM, partner dose 0.02 µM), the cell count came to 67.6% in the assay with A101D, 78.7% with A2058 and 64.3% with A375.
The corresponding values for `COc1ccc(C2=N[C@@H](c3ccc(Cl)cc3)[C@@H](c3ccc(Cl)cc3)N2C(=O)N2CCNC(=O)C2)c(OC(C)C)c1` [Nutlin-3] + O=C(O)c1ccc2c(c1)nc(Nc1cccc(Cl)c1)c1ccncc12 [CX4945] (first compound 0.5 µM, partner dose 2 µM) are 64.3%, 85.4% and 62.9%.
As for `CC(C)C[C@H](NC(=O)[C@H](Cc1ccccc1)NC(=O)c1cnccn1)B(O)O` [Bortezomib] + CO[C@H]1C[C@@H]2CC[C@@H](C)[C@@](O)(O2)C(=O)C(=O)N2CCCC[C@H]2C(=O)O[C@H]([C@H](C)C[C@@H]2CC[C@@H](OCCO)[C@H](OC)C2)CC(=O)[C@H](C)/C=C(\C)[C@@H](O)[C@@H](OC)C(=O)[C@H](C)C[C@H](C)/C=C/C=C/C=C/1C [everolimus] (first compound 0.005 µM, partner dose 0.1 µM), the cell count worked out at 21.1% in the assay on A101D, 23.5% in the assay with A2058 and 99.9% with A375.
The corresponding values for `COc1ccc(C2=N[C@@H](c3ccc(Cl)cc3)[C@@H](c3ccc(Cl)cc3)N2C(=O)N2CCNC(=O)C2)c(OC(C)C)c1` [Nutlin-3] + NC1(c2ccc(-c3nc4ccn5c(=O)[nH]nc5c4cc3-c3ccccc3)cc2)CCC1 [MK2206] (first compound 0.5 µM, partner dose 2 µM) are 71.4%, 79.8% and 83%.
The corresponding values for `Cc1cc(Nc2cc(N3CCN(C)CC3)nc(/C=C/c3ccccc3)n2)n[nH]1` + COCC[n+]1c2c(n(Cc3cnccn3)c1C)C(=O)c1ccccc1C2=O [YM155] (first compound 0.2 µM, partner dose 0.002 µM) are 69.2%, 19.8% and 79.9%.
The corresponding values for `Cc1cc(Nc2cc(N3CCN(C)CC3)nc(/C=C/c3ccccc3)n2)n[nH]1` + Nc1ncn([C@H]2C[C@H](O)[C@@H](CO)O2)c(=O)n1 [decitabine] (first compound 0.2 µM, partner dose 0.5 µM) are 72.4%, 60.4% and 97.4%.
Take `CC(C)C[C@H](NC(=O)[C@H](Cc1ccccc1)NC(=O)c1cnccn1)B(O)O` [Bortezomib] + O=C(O)c1ccc(-c2c[nH]c3ncc(-c4ccccc4)cc23)cc1C1CCCC1 [GSK650394] (first compound 0.005 µM, partner dose 0.8 µM): the cell count came out at 8.99% with A101D, 14.9% in the assay on A2058 and 73.1% in the assay with A375.
For `COc1ccc(C2=N[C@@H](c3ccc(Cl)cc3)[C@@H](c3ccc(Cl)cc3)N2C(=O)N2CCNC(=O)C2)c(OC(C)C)c1` [Nutlin-3] + C=C(c1ccc(C(=O)O)cc1)c1cc2c(cc1C)C(C)(C)CCC2(C)C [Bexarotene] (first compound 0.5 µM, partner dose 10 µM), in that order: 71.1%, 101% and 109%.
As for `COc1ccc(C2=N[C@@H](c3ccc(Cl)cc3)[C@@H](c3ccc(Cl)cc3)N2C(=O)N2CCNC(=O)C2)c(OC(C)C)c1` [Nutlin-3] + CCCCCCCCCCCC1=C(O)C(=O)C=C(O)C1=O [Embelin] (first compound 0.5 µM, partner dose 6 µM), the cell count with A101D worked out at 53.6%; in the assay on A2058, 96.6%; with A375 it was 97%.
The corresponding values for `Cc1cn(-c2cc(NC(=O)c3ccc(C)c(Nc4nccc(-c5cccnc5)n4)c3)cc(C(F)(F)F)c2)cn1` [nilotinib] + NC(=O)c1ccc(N(C(N)=O)c2c(F)cccc2F)nc1-c1ccc(F)cc1F [VX702] (first compound 1 µM, partner dose 2 µM) are 111%, 91.4% and 142%.
For `Cc1cn(-c2cc(NC(=O)c3ccc(C)c(Nc4nccc(-c5cccnc5)n4)c3)cc(C(F)(F)F)c2)cn1` [nilotinib] + O=C(O)c1ccc(-c2c[nH]c3ncc(-c4ccccc4)cc23)cc1C1CCCC1 [GSK650394] (first compound 1 µM, partner dose 0.8 µM), in that order: 92.7%, 91.4% and 117%.
Take `Cn1c(=O)n(-c2ccc(C(C)(C)C#N)cc2)c2c3cc(-c4cnc5ccccc5c4)ccc3ncc21` + COc1cc(Nc2ncc(F)c(Nc3ccc4c(n3)NC(=O)C(C)(C)O4)n2)cc(OC)c1OC [Tamatinib] (first compound 0.02 µM, partner dose 2 µM): the values for the cell count in the assay with A101D, with A2058 and with A375 were 59%, 59.7% and 84.7%, respectively.
The corresponding values for `CC(C)C[C@H](NC(=O)[C@H](Cc1ccccc1)NC(=O)c1cnccn1)B(O)O` [Bortezomib] + C=CCNC1=C2C[C@@H](C)C[C@H](OC)[C@H](O)[C@@H](C)/C=C(\C)[C@H](OC(N)=O)[C@@H](OC)/C=C\C=C(/C)C(=O)NC(=CC1=O)C2=O [Tanespimycin] (first compound 0.005 µM, partner dose 0.01 µM) are 24.7%, 12.9% and 98.6%.
For `Cn1c(=O)n(-c2ccc(C(C)(C)C#N)cc2)c2c3cc(-c4cnc5ccccc5c4)ccc3ncc21` + C#Cc1cccc(Nc2ncnc3cc(OCCOC)c(OCCOC)cc23)c1 [erlotinib] (first compound 0.02 µM, partner dose 4 µM), in that order: 75%, 47.6% and 93.2%.
The corresponding values for `CC(C)C[C@H](NC(=O)[C@H](Cc1ccccc1)NC(=O)c1cnccn1)B(O)O` [Bortezomib] + O=C(CCCCCCC(=O)Nc1ccccc1)NO [vorinostat] (first compound 0.005 µM, partner dose 0.4 µM) are 9.6%, 19.4% and 77.9%.
On to `Cc1cc(Nc2cc(N3CCN(C)CC3)nc(/C=C/c3ccccc3)n2)n[nH]1` + CNC(=O)c1cc(Oc2ccc(NC(=O)Nc3ccc(Cl)c(C(F)(F)F)c3)cc2)ccn1 [sorafenib] (first compound 0.2 µM, partner dose 2 µM), for which the cell count in the assay on A101D was determined as 82.9%; with A2058, 85%; in the assay on A375, 122%.
For `CC(C)C[C@H](NC(=O)[C@H](Cc1ccccc1)NC(=O)c1cnccn1)B(O)O` [Bortezomib] + C#Cc1cccc(Nc2ncnc3cc(OCCOC)c(OCCOC)cc23)c1 [erlotinib] (first compound 0.005 µM, partner dose 4 µM), in that order: 15.9%, 10.1% and 93%.
For `Cn1c(=O)n(-c2ccc(C(C)(C)C#N)cc2)c2c3cc(-c4cnc5ccccc5c4)ccc3ncc21` + C[C@@H](Oc1cc(-c2cnn(C3CCNCC3)c2)cnc1N)c1c(Cl)ccc(F)c1Cl [Crizotinib] (first compound 0.02 µM, partner dose 1 µM), in that order: 75.1%, 45.9% and 94.5%.
For `Cc1cn(-c2cc(NC(=O)c3ccc(C)c(Nc4nccc(-c5cccnc5)n4)c3)cc(C(F)(F)F)c2)cn1` [nilotinib] + CC(=O)O[C@@]12CO[C@@H]1C[C@H](O)[C@@]1(C)C(=O)[C@H](O)C3=C(C)[C@@H](OC(=O)[C@H](O)[C@@H](NC(=O)OC(C)(C)C)c4ccccc4)C[C@@](O)([C@@H](OC(=O)c4ccccc4)[C@H]21)C3(C)C [Docetaxel] (first compound 1 µM, partner dose 0.0005 µM), in that order: 49.2%, 8.71% and 61.9%.
In the case of `Cn1c(=O)n(-c2ccc(C(C)(C)C#N)cc2)c2c3cc(-c4cnc5ccccc5c4)ccc3ncc21` + CS(=O)(=O)CCNCc1ccc(-c2ccc3ncnc(Nc4ccc(OCc5cccc(F)c5)c(Cl)c4)c3c2)o1 [lapatinib] (first compound 0.02 µM, partner dose 4 µM), the cell count in the assay with A101D is 57.9%; in the assay with A2058, 49.2%; with A375, 156%.
The corresponding values for `Cc1cc(Nc2cc(N3CCN(C)CC3)nc(/C=C/c3ccccc3)n2)n[nH]1` + CCCS(=O)(=O)Nc1ccc(F)c(C(=O)c2c[nH]c3ncc(Cl)cc23)c1F [PLX4720] (first compound 0.2 µM, partner dose 0.4 µM) are 71.2%, 93% and 103%.
For `Cc1cn(-c2cc(NC(=O)c3ccc(C)c(Nc4nccc(-c5cccnc5)n4)c3)cc(C(F)(F)F)c2)cn1` [nilotinib] + CN(c1ncccc1CNc1nc(Nc2ccc3c(c2)CC(=O)N3)ncc1C(F)(F)F)S(C)(=O)=O [PF562271] (first compound 1 µM, partner dose 0.4 µM), in that order: 98.8%, 74.4% and 88.9%.
